Results on four molecules are retold here after US4230719A, “Novel 2-[4-(3-methyl-2-thienyl)phenyl]propionic acid and pharmaceutically acceptable salt thereof and method for treating symptoms of inflammation and pain” (Toyama Chemical Co., Ltd., priority 1977, dated 1980).

For one data set, the system named is Glomerulonephritis. As to the kind of experiment: Action on glomerulonephritis in rats. The data set is classed as in vivo, rat (Wistar strain, male). The text has this: (ii) Action on glomerulonephritis in rats
Glomerulonephritis was induced in Wistar strain male rats (each weighing 180 to 200 g) by use of an anti-rat's kidney rabbit serum obtained from the serum of a rabbit sensitized with a homogenate of rat's kidney cortice. To the rat producing stable proteinuria was orally administered the test compound repeatedly at the rate shown in Table 12 for 2 weeks, and the inhibition of uric protein was examined.

The subject of data set [1] is prostaglandin biosynthesis (homogenate of guinea pig's lung). Description: Inhibitory action on prostaglandin biosynthesis (TBA method). As to conditions: read-out: ID50.
Data set [2] concerns gastric mucosa and intestine. Description: Test for ulcerogenic action (ii), three doses, rats on normal meal. More on the design: scale not given here. Format: in vivo, rat (Donryu strain, male). The protocol: (ii) In the same manner as in (i), the test compound was orally administered to each Donryu strain male rat (weighing about 180 g; 10 rats per group) which had received normal meal. The second dose was administered after 8 hours and the third dose after 16 hours from the second dose. Five hours after the last administration, the rats were treated in the same manner as in (i). The gastric mucosa injury and the intestinal injury were scored in the same manner as in (i).

The test system of data set [3] is gastric mucosa and intestine. Description: Test for ulcerogenic action (i), single dose, fasted rats. Format: in vivo. As to conditions: for Gastric glandular score: 18 hours, score 0 (no lesion) to 4 (many large ulcers or perforation). The protocol:
(§1) (4) Test for ulcerogenic action
(§2) After 18 hours, the rats were killed by suffocation with chloroform and their stomachs were excised. After having been filled with 5 ml of 1% formalin to fix the gastric mucosa, each stomach was incised along the greater curvature to inspect grossly the extent of injury of the gastric mucosa. The extent of injury was scored as follows: 0, no lesion; 1, petechia or erosion; 2, 1-5 small ulcers; 3, many small ulcers; 4, many large ulcers or perforation. The intestinal injury was evaluated based on the incidence of erosion.

Test in data set [4]: as above
The data set is classed as in vivo. As to conditions: in vivo, po, rat. The protocol: as §1, §2

In the next data set the test system is Wistar strain male rats. Description: Test for the effect of repeated administration. As to conditions: 8 rats per group.
For a further data set, the system named is uric acid in plasma. Description: Uricosuric action (b), uric acid in plasma of uric acid loaded rats. Format: in vivo, rat (Wistar strain, male). The protocol: (b) After fasting overnight, the test compound was orally administered to a Wistar strain male rat weighing 150 to 200 g. After one hour, the rat was loaded with 100 mg/kg of uric acid by intraperitoneal administration. Thirty minutes thereafter, a blood sample was drawn from the cervical vein and the uric acid concentration in the plasma was determined by use of a kit (Uric acid test Wako) for the uric acid determination.

[5] abbreviates: read-out: UD50 (gastric glandular).

Each structure is given as a SMILES string. Like-named read-outs stand apart in the source and are kept apart here.

Take `COc1ccc2c(c1)c(CC(=O)O)c(C)n2C(=O)c1ccc(Cl)cc1` [Indomethacin]: the “Inhibition of uric protein” value in the data set with Glomerulonephritis (2 mg/kg p.o./day, 7th day) was determined as 14.0%; with Glomerulonephritis (2 mg/kg p.o./day, 14th day), 8.9%. In data set [1], the IC50 turned out to be 5700 nM. Besides, the “Score, intestine, mean ± S.E.” value is given as 3.50 ± 0.22 in data set [2] (5 mg/kg × 3 p.o.) and 3.90 ± 0.10 in data set [2] (15 mg/kg × 3 p.o.). Further, the results for the “Score, stomach, mean ± S.E.” value in data set [2] (5 mg/kg × 3 p.o.) and in data set [2] (15 mg/kg × 3 p.o.) were 1.95 ± 0.22 and 3.10 ± 0.23, respectively. Besides, the results for the Intestine erosion incidence in data set [3] (3 mg/kg p.o.), in data set [3] (10 mg/kg p.o.) and in data set [3] (30 mg/kg p.o.) were 0/7, 0/7 and 3/7, respectively. The results for the Gastric glandular score in data set [3] (3 mg/kg p.o.), in data set [3] (10 mg/kg p.o.) and in data set [3] (30 mg/kg p.o.) were 1.00 ± 0.27, 1.93 ± 0.40 and 3.93 ± 0.07, respectively. Further, the TD50 at 18 h in data set [4] (setting [5]) is 7.8 mg/kg. Moreover, the “Death / growth disturbance on repeated administration” value in the data set with Wistar strain male rats (5 mg/kg p.o. repeatedly for one week) is “All the rats of the groups to which Diclofenac sodium and Indomethacin had been administered died”.

For `O=C(O)Cc1ccccc1Nc1c(Cl)cccc1Cl` [Diclofenac sodium], in the data set with Glomerulonephritis (footnote of Table 12, dose not stated), the “Activity on glomerulonephritis (in words)” value is given as “low activity”. Also, in data set [1], the IC50 was 1000 nM. Also, the results for the “Score, intestine, mean ± S.E.” value in data set [2] (5 mg/kg × 3 p.o.) and in data set [2] (15 mg/kg × 3 p.o.) were 1.00 ± 0.21 and 3.30 ± 0.26, respectively. The entries for the “Score, stomach, mean ± S.E.” value in data set [2] (5 mg/kg × 3 p.o.) and in data set [2] (15 mg/kg × 3 p.o.) were 0.90 ± 0.22 and 1.15 ± 0.25, respectively. Moreover, the Intestine erosion incidence is 0/7 in data set [3] (10 mg/kg p.o.), 0/7 in data set [3] (30 mg/kg p.o.) and 2/7 in data set [3] (100 mg/kg p.o.). The Gastric glandular score in data set [3] (10 mg/kg p.o.) was found to be 1.00 ± 0.31; in data set [3] (30 mg/kg p.o.), 1.57 ± 0.43; in data set [3] (100 mg/kg p.o.), 3.79 ± 0.10. For the same molecule, in data set [4] (setting [5]), the TD50 at 18 h was 28 mg/kg. Further, the “Death / growth disturbance on repeated administration” value in the data set on Wistar strain male rats (20 mg/kg p.o. repeatedly for one week) was “All the rats of the groups to which Diclofenac sodium and Indomethacin had been administered died”.

Take `Cc1ccsc1-c1ccc(C(C)C(=O)O)cc1` (racemic) [Racemic compound, dl-2-[4-(3-methyl-2-thienyl)phenyl]propionic acid]: the “Inhibition of uric protein” value in the data set on Glomerulonephritis (10 mg/kg p.o./day, 7th day) is given as 22.9%; in the data set on Glomerulonephritis (10 mg/kg p.o./day, 14th day) it was 35.0%. The IC50 in data set [1] stood at 1400 nM. The “Score, intestine, mean ± S.E.” value was 0.40 ± 0.16 in data set [2] (5 mg/kg × 3 p.o.), 0.50 ± 0.17 in data set [2] (15 mg/kg × 3 p.o.) and 2.90 ± 0.31 in data set [2] (30 mg/kg × 3 p.o.). Also, the “Score, stomach, mean ± S.E.” value in data set [2] (5 mg/kg × 3 p.o.) is given as 0.95 ± 0.22; in data set [2] (15 mg/kg × 3 p.o.), 1.20 ± 0.13; in data set [2] (30 mg/kg × 3 p.o.), 1.80 ± 0.29. In addition, the Intestine erosion incidence in data set [3] (10 mg/kg p.o.), in data set [3] (30 mg/kg p.o.) and in data set [3] (100 mg/kg p.o.) was 0/7 each time. Besides, the Gastric glandular score in data set [3] (10 mg/kg p.o.) worked out at 0.86 ± 0.21; in data set [3] (30 mg/kg p.o.), 1.36 ± 0.30; in data set [3] (100 mg/kg p.o.), 3.07 ± 0.32. Also, the TD50 at 18 h in data set [4] turned out to be 42 mg/kg. Moreover, the “Uric acid concentration in plasma, mean ± S.E.” value came to 5.3 ± 0.26 mg/dL with uric acid in plasma (10 mg/kg p.o.) and 3.4 ± 0.24 mg/dL in the data set on uric acid in plasma (20 mg/kg p.o.).

As for `Cc1ccsc1-c1ccc(C(C)C(=O)O)cc1` (single isomer, unassigned; isomer d) [d-Isomer, d-2-[4-(3-methyl-2-thienyl)phenyl]propionic acid], the “Inhibition of uric protein” value in the data set on Glomerulonephritis (10 mg/kg p.o./day, 7th day) stood at 33.4%; with Glomerulonephritis (10 mg/kg p.o./day, 14th day), 44.1%. The IC50 in data set [1] turned out to be 1100 nM. The values for the Intestine erosion incidence in data set [3] (10 mg/kg p.o.), in data set [3] (30 mg/kg p.o.) and in data set [3] (100 mg/kg p.o.) were 0/7, 0/7 and 2/7, respectively. Besides, the Gastric glandular score in data set [3] (10 mg/kg p.o.) was 0.92 ± 0.25; in data set [3] (100 mg/kg p.o.), 3.20 ± 0.32. Further, the TD50 at 18 h in data set [4] is 36 mg/kg.
